We go through 85 compounds from ChEMBL document CHEMBL4888484, “Replenishing the malaria drug discovery pipeline: Screening and hit evaluation of the MMV Hit Generation Library 1 (HGL1) against asexual blood stage Plasmodium falciparum ,using a nano luciferase reporter read-out” (2022).

In all, about 150,000 compounds went through this assay and about 540 (0.36%) showed an effect of 50% or more. This is one part of the list.

The test system of this test is Plasmodium falciparum. The test can be described thus: Primary screen in NF54 nanoGlo assay, in single point, at 2uM, 72h; a lower Z score goes with more inhibition. Format: functional, Erythrocyte. The note with it: timepoint 72 hour.
As usually defined, the % Inhibition is the relative decrease from the control value, in per cent. Turning to `CCOc1cccc2c1cc(C(=O)NC1CCCCC1)n2Cc1ccccc1Cl`, the “% Inhibition” value is on record as -5% and the Z score was determined as 0.48.
Regarding `COc1cccc([C@@H]2CN(C(=O)c3cnc(C)nc3)[C@@H]3C4CCN(CC4)[C@@H]32)c1`, the “% Inhibition” value is reported as -9% and the Z score amounted to 1.09.
For `COc1ccc(-c2cccc(C(=O)N[C@H]3CN4CCC3CC4)c2)c(OC)c1`, the “% Inhibition” value came to 15% and the Z score was -1.88.
With `COCC(=O)N1CCC2(CC1)c1nccn1-c1ccccc1CN2CC(C)C`, the “% Inhibition” value is reported as -13% and the Z score came out at 1.67.
Consider `Cc1noc(C)c1C(C)NC(=O)NC(C)Cc1c(F)cccc1F` (stereo not given), for which the “% Inhibition” value is -13% and the Z score is listed as 1.19.
For `CCCc1nn(CC(=O)Nc2ccccc2CC)c(=O)o1`, the “% Inhibition” value is listed as -3% and the Z score was found to be 0.42.
With `CCn1nc(C)c(CN2C[C@@H](c3cccc(O)c3)[C@@H]3[C@H]2C2CCN3CC2)c1C`, the “% Inhibition” value is -8% and the Z score is 1.07.
For `c1ccc(COc2ccc3c(c2)CNCC3)cc1`, in that order: -10% and 1.27.
As to `Cc1ccc([C@H]2CN(C(=O)c3sc(C)nc3C)[C@@H]3C4CCN(CC4)[C@H]23)cc1`, the “% Inhibition” value is reported as -9% and the Z score is 1.19.
Take `CN(C)C(=O)CN1C[C@H]2CC[C@@H](C1)N(C(=O)Cc1ccccc1Cl)C2`: the “% Inhibition” value worked out at 5% and the Z score is recorded as -1.
Consider `CCO[C@H]1CN(C(=O)c2cn(C)c3ccccc23)C[C@@H]1O`, for which the “% Inhibition” value is recorded as -10% and the Z score is given as 0.92.
With `CO[C@H]1C[C@H]2CC[C@@H](C1)N2Cc1ccc2cc(Cl)ccc2n1`, the “% Inhibition” value was determined as 3% and the Z score is -0.51.
Regarding `Cc1ccc(C[C@H](C)N(C)CCS(C)(=O)=O)cc1`, the “% Inhibition” value is -19% and the Z score is 1.79.
For `C(#CCN1CCOCC1)COCC#Cc1ccccc1`, in that order: 1% and -0.16.
In the case of `C1=CC[C@H]2CN(Cc3cnc(NCc4ccccc4)nc3)C[C@H]2C1`, the “% Inhibition” value is listed as -6% and the Z score was 0.81.
Turning to `c1ccc2c(c1)CC(N1C[C@@H](c3ccc4c(c3)OCO4)[C@@H]3[C@H]1C1CCN3CC1)C2`, the “% Inhibition” value is -6% and the Z score was determined as 0.66.
Consider `O=C(Oc1c(Br)cc(Br)c2ccccc12)N1CCCCC1`, for which the “% Inhibition” value is reported as -6% and the Z score was 0.77.
For `COc1nccnc1N1[C@@H]2CC[C@H]1CN(C)CC2`, in that order: 7% and -1.2.
In the case of `O=C(CN(CCN1CCOCC1)C(=O)Cc1ccccc1)Nc1nc(-c2ccccc2)cn1-c1ccc(F)cc1`, the “% Inhibition” value is -18% and the Z score amounted to 1.7.
On to `O=C1NC(=O)C2(Cc3cccc(F)c3N3CCC(c4ccccc4)CC32)C(=O)N1c1ccccc1` (stereo not given), for which the “% Inhibition” value is listed as 38% and the Z score was -4.32.
With `O=C(NCc1nccs1)C1CCCC2CCCN21` (stereo not given), the “% Inhibition” value is given as -11% and the Z score came to 1.55.
On to `CCOC(CN1CCC2OCCCC2C1)OCC` (stereo not given), for which the “% Inhibition” value is -9% and the Z score came to 1.03.
On to `FC(F)(F)c1ccc2c(N3C[C@@H]4C[C@H]3CN4)nccc2c1`, for which the “% Inhibition” value is -15% and the Z score came to 1.51.
For `NC(=O)COc1ccc(-c2cccc3c2CCNC3)cc1`, in that order: -4% and 0.54.
Regarding `COC(=O)[C@H](Cc1ccccc1)NC(=O)c1cnn(Cc2ccccc2)c1`, the “% Inhibition” value was -14% and the Z score was determined as 1.56.
In the case of `C[C@@H](Cc1cccc(Cl)c1)NC(=O)CCN1C(=O)CCC1=O`, the “% Inhibition” value came out at 4% and the Z score is on record as -0.57.
For `COCc1nn(CCc2cc(Cl)cc(Cl)c2)c(=O)o1`, in that order: -10% and 1.23.
For `CCc1nn(Cc2ccccc2)c(CC)c1C(=O)NC1CC1`, in that order: -6% and 0.53.
For `CC1C2CCCN2CCN1Cc1cccc(O)c1` (stereo not given), the “% Inhibition” value came to 0% and the Z score came to 0.04.
For `O=C(c1ccc2c(c1)OCO2)N1CC(C(=O)N2CCC3(CC2)OCCO3)C1`, in that order: -10% and 1.55.
Regarding `CC(C)n1c(=O)oc2cc(-c3noc(-c4nn(C)c5ccccc45)n3)ccc21`, the “% Inhibition” value is -30% and the Z score amounted to 2.91.
In the case of `COCCn1cc(C(=O)N[C@H]2C[C@@](CO)(c3ccccc3)C2)nn1`, the “% Inhibition” value amounted to 1% and the Z score is -0.11.
Regarding `O=C(Cc1cccc(Cl)c1)N1C[C@@H]2CC[C@H]1CN(Cc1cscn1)C2`, the “% Inhibition” value is given as -11% and the Z score stood at 1.11.
As to `C[C@@H](c1nnc(-c2ccccc2F)s1)N1CCC(c2c[nH]c3ccccc23)CC1`, the “% Inhibition” value came to 0% and the Z score is on record as -0.01.
For `CC(C)[C@H](NC(=O)COCC1CC1)c1ccc2[nH]c(=O)oc2c1`, in that order: -1% and 0.17.
For `Cc1cc(C)c2[nH]c(C)c(CCN3CC[C@H](O)C3)c2c1`, in that order: -18% and 2.77.
For the compound `C[C@@H](Cn1cccn1)C(=O)NCCc1c[nH]cn1`, the “% Inhibition” value is given as -8% and the Z score worked out at 0.84.
For `CC[C@H]1C[N@@]2CC[C@H]1C[C@@H]2COC(=O)Nc1ccccc1`, in that order: 45% and -5.09.
Consider `CN1C(=O)N(C)C(=O)C(Cc2ccccn2)(Cc2ccccn2)C1=O`, for which the “% Inhibition” value is 6% and the Z score is listed as -0.93.
Consider `CC(C)(N)Cc1ccc(Br)cc1`, for which the “% Inhibition” value is listed as -2% and the Z score was 0.34.
Turning to `Cc1nc(N)nc(N2CCC3(CCN(C)C3)CC2)c1Cl`, the “% Inhibition” value is listed as 5% and the Z score is reported as -0.68.
For `N#Cc1cccnc1NCC12CCCN(CCC1)C2`, in that order: -11% and 1.41.
Regarding `CC(C)COC(=O)C[C@@H](CN)c1ccccc1`, the “% Inhibition” value is -7% and the Z score was found to be 1.33.
For `O=C(Cc1csc(-c2ccccc2)n1)N1CCN2CCC1C2` (stereo not given), the “% Inhibition” value was -1% and the Z score came out at 0.22.
For `Cc1cc(Br)ccc1CNC(=O)c1cn(C2CCNCC2)nn1`, in that order: -8% and 1.14.
With `O=C1CO[C@H]2CN(Cc3ccco3)C[C@H]2N1Cc1cccnc1`, the “% Inhibition” value turned out to be 32% and the Z score is -3.56.
`O=C(c1cn(Cc2ccc(Cl)cc2)nn1)N(Cc1ccccc1)CC1CC1`: the “% Inhibition” value is recorded as -4% and the Z score amounted to 0.77.
In the case of `C1CCCC(NCCCOC2CCCC2)CC1`, the “% Inhibition” value is -13% and the Z score is on record as 2.38.
For `O=C(Nc1ccc(=O)n2c1[C@@H]1C[C@@H](CN(S(=O)(=O)c3ccccc3)C1)C2)c1cncnc1`, in that order: -3% and 0.66.
Regarding `O=c1ccc(C2CCCCC2)c2n1C[C@H]1C[C@@H]2CN(S(=O)(=O)c2ccccc2)C1`, the “% Inhibition” value is on record as -6% and the Z score turned out to be 0.89.
For `CN(CC(=O)N1CCCCCC1)S(=O)(=O)c1ccc2[nH]c(=O)oc2c1`, in that order: -3% and 0.45.
For `CCN1CCC2CCC(C1)N2C(=O)Nc1ccnc(OC)n1` (stereo not given), in that order: -3% and 0.49.
For the compound `c1cc2oc(CN3CC4(CCCOC4)C3)cc2cn1`, the “% Inhibition” value is -2% and the Z score turned out to be 0.17.
For `CCOCc1nc(-c2c(C)ncc3c2CCN(c2ccnc(N)n2)C3)no1`, in that order: -3% and 0.41.
With `O=c1c2ccccc2nc(Cc2ccccc2)n1-c1c(Cl)cccc1Cl`, the “% Inhibition” value is listed as -4% and the Z score stood at 0.57.
Take `CCC(=O)NCc1ccccc1C1=CCNCC1`: the “% Inhibition” value was determined as 3% and the Z score is -0.36.
With `NCCc1cc(Br)ccc1F`, the “% Inhibition” value is -3% and the Z score was 0.33.
Take `C1=CC2(CCNCC2)Oc2ccccc21`: the “% Inhibition” value is listed as 0% and the Z score is 0.06.
For `C[C@@H]1CN(C2CCOCC2)CCN1C(=O)Cc1cc(F)ccc1F`, the “% Inhibition” value was -7% and the Z score stood at 0.88.
With `CC(F)(F)CN1CCN(C(=O)Cc2ccco2)CC1`, the “% Inhibition” value is on record as -4% and the Z score is 0.6.
`C[C@@](CO)(Cc1ccccc1F)NCc1nc(C(F)F)no1`: the “% Inhibition” value is -3% and the Z score is on record as 0.48.
Take `C[C@@H](Cc1ccsc1)N(C)Cc1cnc2ccc(C#N)cn12`: the “% Inhibition” value was -10% and the Z score is 1.9.
Regarding `COc1ccccc1[C@H]1CN(c2noc(C)n2)[C@@H]2C3CCN(CC3)[C@H]12`, the “% Inhibition” value is on record as -3% and the Z score is 0.33.
As to `COC(=O)c1[nH]c(C)cc1NS(=O)(=O)c1ccc(S(=O)(=O)F)cc1`, the “% Inhibition” value came to 0% and the Z score is -0.06.
Take `c1cc(N2CC[C@@]3(CCCNC3)C2)c2sccc2n1`: the “% Inhibition” value is recorded as 98% and the Z score was -16.03.
For the compound `Cc1ncccc1CNC(=O)C1NCCC2CCCCC21` (stereo not given), the “% Inhibition” value amounted to 1% and the Z score is -0.1.
As for `CN1C[C@@]2(Cc3c1ccc1ccccc31)C(=O)NC(=O)N(c1ccc(F)cc1)C2=O`, the “% Inhibition” value is on record as 27% and the Z score is on record as -3.04.
Regarding `O=C(c1ccc(O)cc1)N1C[C@@H](c2cccc(F)c2F)[C@@H]2[C@H]1C1CCN2CC1`, the “% Inhibition” value was 2% and the Z score is recorded as -0.38.
For `Fc1cnc(N2C[C@@H](c3ccccc3)[C@@H]3[C@H]2C2CCN3CC2)nc1`, the “% Inhibition” value was -13% and the Z score was determined as 2.17.
Take `COc1ccccc1C[C@H](C)N(C)C(=O)CN1C(=O)OC(C)(C)C1=O`: the “% Inhibition” value is -18% and the Z score stood at 1.82.
As for `c1ccc2c(c1)CCC[C@@]21CCCNC1`, the “% Inhibition” value is -10% and the Z score worked out at 1.08.
Turning to `CCCn1nc(C(=O)N2CCC(Nc3ccccc3)CC2)ccc1=O`, the “% Inhibition” value is reported as -1% and the Z score came to 0.07.
For the compound `Cc1cccc(CN2CCC[C@H](C(=O)c3ccc(Cl)cc3)C2)n1`, the “% Inhibition” value is recorded as -12% and the Z score worked out at 1.61.
As to `Cc1ccc(NC(=O)Nc2ccc(C)n(CC(=O)N3CCC4(CC3)OCCO4)c2=O)cc1`, the “% Inhibition” value was found to be 12% and the Z score is listed as -1.67.
For `Cc1ccc([C@H](C)n2ccnc2-c2coc(C)n2)cn1`, in that order: -3% and 0.5.
For `COc1ccc(N2C[C@H]2c2ccncc2)cc1`, in that order: 45% and -5.81.
As for `Cc1ccc(S(=O)(=O)N(CCS(=O)(=O)F)CCS(=O)(=O)F)c(C)c1`, the “% Inhibition” value is on record as -20% and the Z score amounted to 3.28.
`O=C(CN1CCCCCC1)N1CCC2(CC1)OCCO2`: the “% Inhibition” value is recorded as -9% and the Z score amounted to 1.24.
On to `COc1ccc(Cc2nc(-c3ccc4c(c3)oc(=O)n4C)no2)cc1Cl`, for which the “% Inhibition” value is 2% and the Z score is reported as -0.21.
For `COc1ccccc1NC(=O)N1C[C@H]2COc3ccccc3C[C@@]2(C(=O)O)C1`, in that order: -4% and 0.47.
For the compound `O[C@@H]1C[C@H]2CN(CCCc3cccnc3)Cc3cccnc3N2C1`, the “% Inhibition” value amounted to 3% and the Z score is on record as -0.39.
Turning to `CCc1ccc(C(=O)Nc2cnc3c(c2)CNCC3)o1`, the “% Inhibition” value is listed as -13% and the Z score is 1.34.
Turning to `Cc1ncccc1CN1C[C@H]2CCC[C@@H](C2)C1`, the “% Inhibition” value is listed as -4% and the Z score amounted to 0.87.
As to `CCCS(=O)(=O)NC[C@H]1C[C@@H]2CCN1C[C@@H]2c1cc(C(CC)CC)nc(-c2ccncc2)n1`, the “% Inhibition” value turned out to be 35% and the Z score is reported as -3.34.
Turning to `Cc1nnc(CN2C(C)CC3CCCCC32)n1C` (stereo not given), the “% Inhibition” value is -5% and the Z score is given as 0.51.
